In the RNAGym collection of RNA variant scans (doi:10.7554/elife.90254) one finds self-cleavage data, which are given here for 39 variants.

The source gives no read counts; variants with many changes may rest on few reads.

B1: LINE1-full (parent)
chain: UACGUAGGUGGUUUUCCCCUGAUAGUGCUAAGGGGGCCUGGAAGUUUGGACUGGGCAGAGCUCAACACAGCGUGGCAAAGUGGCUGUGGCUAGACUGCCUCUCUGGAUUCCUCGUCACUCAGCAGGGCAUCUCUGAGAGAAAUGCC

In the series the parent is B1. The series can be described thus: self-cleavage, relative activity (ratio to wild type); higher = more cleavage; in vitro, sequencing; the parent is a self-cleaving ribozyme.
In the case of UACGUAGGUGGUUUUCCCCUGAUAGUGCUAAGGGGGCCUGGAAGUUUGGACUGGGCAGAGCUCAACACAGCGUGGCAAAGUGGCUGUGGCUAGACUACCUCACUGGAUUCCUCGUCACUCAGCAGGGCAUCUCUGAGAGGAAUACC [G97A U102A A140G G144A], the self-cleavage was determined as 0.15. Turning to UACGUAGGUGGUUUUCCCCUGAUAGUGCUAAGGGGGCCUGGAAGUUUGGACUGGGCAGAGCUCAACACAGCGUGGCAAAGUGGCUGUGGCUAGACCGCCUCUCCGGAUUCCUCGUCACUCAGCAGAGCAUCUCUGAGAGAAAUGCC [U96C U104C G126A], the self-cleavage worked out at 0.1. As to UACGUAGGUGGUUUUCCCCUGAUAGUGCUAAGGGGGCCUGGAAGUUUGGACUGGGCAGAGCUCAACACAGCGUGGCAAAGUGGCUGUGGCUAGACUGCUUCUCUGGAUUCCUCGUCACUCGGCAGGGCAUCUCCGAUAGAAAUGCC [C99U A121G U134C G137U], the self-cleavage was found to be 0.57. As for UACGUAGGUGGUUUUCCCCUGAUAGUGCUAAGGGGGCCUGGAAGUUUGGACUGGGCAGAGCUCAACACAGCGUGGCAAAGUGGCUGUGGCUAGACAGCCUCUCCGGAUUCCUCGUCACUCAGCAGGGCAUCCCUGAGAGAAAUGCC [U96A U104C U132C], the figure is 0.08. For UACGUAGGUGGUUUUCCCCUGAUAGUGCUAAGGGGGCCUGGAAGUUUGGACUGGGCAGAGCUCAACACAGCGUGGCAAAGUGGCUGUGGCUAGACUGCCACUCUGGAUUCCUCGCCACUCAGCAGGGCAUCUCUGAGAGAGAUGCC [U100A U115C A141G], the self-cleavage came out at 1.61.

With UACGUAGGUGGUUUUCCCCUGAUAGUGCUAAGGGGGCCUGGAAGUUUGGACUGGGCAGAGCUCAACACAGCGUGGCAAAGUGGCUGUGGCUAGACCGCCUCUCUGGAUUCCUCGUCACACAGCUGGGCAUCUCUGAGAGAAAUGCC [U96C U119A A124U], the self-cleavage stood at 0.12. As for UACGUAGGUGGUUUUCCCCUGAUAGUGCUAAGGGGGCCUGGAAGUUUGGACUGGGCAGAGCUCAACACAGCGUGGCAAAGUGGCUGUGGCUAGACCGCCUCUCUGGAUUCCUCGUCACUCAGCAGGGCAUCUCCGAGAGAAAUGCA [U96C U134C C146A], the figure is 0.4; as for UACGUAGGUGGUUUUCCCCUGAUAGUGCUAAGGGGGCCUGGAAGUUUGGACUGGGCAGAGCUCAACACAGCGUGGCAAAGUGGCUGUGGCUAGACCGCCUCUCUGGAUUCCUCGUCACUCAGCAGGGCAUCCCUGAGAGGAGUGCC [U96C U132C A140G A142G], 0. On to UACGUAGGUGGUUUUCCCCUGAUAGUGCUAAGGGGGCCUGGAAGUUUGGACUGGGCAGAGCUCAACACAGCGUGGCAAAGUGGCUGUGGCUAGACCGCCCCUCUGGAUCCCUCGUCACUCAGCAGGGCAUCUCUGAGAGAGAUGCC [U96C U100C U109C A141G], for which the self-cleavage came to 0. UACGUAGGUGGUUUUCCCCUGAUAGUGCUAAGGGGGCCUGGAAGUUUGGACUGGGCAGAGCUCAACACAGCGUGGCAAAGUGGCUGUGGCUAGACGGCCUCUCUGGAUUCCUCGUCACCCAGCAGGGCAUCUAUGAGAGAAAUGCC [U96G U119C C133A]: the self-cleavage worked out at 0.06. As for UACGUAGGUGGUUUUCCCCUGAUAGUGCUAAGGGGGCCUGGAAGUUUGGACUGGGCAGAGCUCAACACAGCGUGGCAAAGUGGCUGUGGCUAGACCGCCUCCCUGGAUUCCUCGUCACUCAGCAGGGCAUCUCUGAGAGAAAUGCG [U96C U102C C146G], the figure is 0.1; as for UACGUAGGUGGUUUUCCCCUGAUAGUGCUAAGGGGGCCUGGAAGUUUGGACUGGGCAGAGCUCAACACAGCGUGGCAAAGUGGCUGUGGCUAGACUGCCACUCUGGAUUCCUCGUCACACAGCAGGGCAUCUCUGAGAGGAAUGCC [U100A U119A A140G], 0.98; as for UACGUAGGUGGUUUUCCCCUGAUAGUGCUAAGGGGGCCUGGAAGUUUGGACUGGGCAGAGCUCAACACAGCGUGGCAAAGUGGCUGUGGCUAGACGGCCUCUCUGGAUUCCUCGUCGCUCAGCAGGGCAUCUCCGAGAGAAAUGCC [U96G A117G U134C], 0. Regarding UACGUAGGUGGUUUUCCCCUGAUAGUGCUAAGGGGGCCUGGAAGUUUGGACUGGGCAGAGCUCAACACAGCGUGGCAAAGUGGCUGUGGCUAGACUACCUCUCUGGAUUCCUCGACACUCAGCGGGGCAUCUCUGAGAGAAAUGCC [G97A U115A A124G], the self-cleavage came to 0.04.

Turning to UACGUAGGUGGUUUUCCCCUGAUAGUGCUAAGGGGGCCUGGAAGUUUGGACUGGGCAGAGCUCAACACAGCGUGGCAAAGUGGCUGUGGCUAGACCGCCUCUCUGGAUCCCUCGUCACUCAGCAGGGCAUCUCUGAGGGAAAUGCC [U96C U109C A138G], the self-cleavage was found to be 0.2.

As for UACGUAGGUGGUUUUCCCCUGAUAGUGCUAAGGGGGCCUGGAAGUUUGGACUGGGCAGAGCUCAACACAGCGUGGCAAAGUGGCUGUGGCUAGACGGCCUCUCAGGAUUCCUCGUCACUCAGCAGGGCAUCUCUGAGAGAAGUGCC [U96G U104A A142G], the self-cleavage was 0.09.

Regarding UACGUAGGUGGUUUUCCCCUGAUAGUGCUAAGGGGGCCUGGAAGUUUGGACUGGGCAGAGCUCAACACAGCGUGGCAAAGUGGCUGUGGCUAGACUGCCACUCUGGAUCCCUCGUCACUCAGCAUGGCAUCUCUGAGAGAAAUGCC [U100A U109C G125U], the self-cleavage was determined as 0.88. With UACGUAGGUGGUUUUCCCCUGAUAGUGCUAAGGGGGCCUGGAAGUUUGGACUGGGCAGAGCUCAACACAGCGUGGCAAAGUGGCUGUGGCUAGACUGCCCCUCUGGGUUCCUCGUCACUCAGCAGGGCAUCUCUGGGAGAGAUGCC [U100C A107G A136G A141G], the self-cleavage was found to be 1.58. Regarding UACGUAGGUGGUUUUCCCCUGAUAGUGCUAAGGGGGCCUGGAAGUUUGGACUGGGCAGAGCUCAACACAGCGUGGCAAAGUGGCUGUGGCUAGACAGCCUCUCUGGAUUCCUCGUCACCCAGCAGGGCACCUCUGAGAGAAAUGCC [U96A U119C U130C], the self-cleavage turned out to be 0.21. For UACGUAGGUGGUUUUCCCCUGAUAGUGCUAAGGGGGCCUGGAAGUUUGGACUGGGCAGAGCUCAACACAGCGUGGCAAAGUGGCUGUGGCUAGACCGCCCCUCUGGAUACCUCGUCACUCAGCAGGGCAUCUCCGAGAGAAAUGCC [U96C U100C U109A U134C] the value was 0.23; for UACGUAGGUGGUUUUCCCCUGAUAGUGCUAAGGGGGCCUGGAAGUUUGGACUGGGCAGAGCUCAACACAGCGUGGCAAAGUGGCUGUGGCUAGACAGCCUCUCUGGAUUCCUCGUCACUCAGCAGGGCACCUCUGAGAGGAAUGCC [U96A U130C A140G], 0.05; for UACGUAGGUGGUUUUCCCCUGAUAGUGCUAAGGGGGCCUGGAAGUUUGGACUGGGCAGAGCUCAACACAGCGUGGCAAAGUGGCUGUGGCUAGACCGCCUCUCUGGAUCCCUCGACACCCAGCAGGGCAUCUCUGAGAGAAAUGCC [U96C U109C U115A U119C], 0. In the case of UACGUAGGUGGUUUUCCCCUGAUAGUGCUAAGGGGGCCUGGAAGUUUGGACUGGGCAGAGCUCAACACAGCGUGGCAAAGUGGCUGUGGCUAGACCGCCUCUCUGGAUUCUUCGUCACUCAGCAGGGCAUCUCUGAGAGAAACGCC [U96C C111U U143C], the self-cleavage came out at 0.15. For UACGUAGGUGGUUUUCCCCUGAUAGUGCUAAGGGGGCCUGGAAGUUUGGACUGGGCAGAGCUCAACACAGCGUGGCAAAGUGGCUGUGGCUAGACUACCUCUCUGGUUUCCUCGUCACUCAGCAGGGCAUCUCCGAGAGAAAUGCC [G97A A107U U134C] the value was 0.07; for UACGUAGGUGGUUUUCCCCUGAUAGUGCUAAGGGGGCCUGGAAGUUUGGACUGGGCAGAGCUCAACACAGCGUGGCAAAGUGGCUGUGGCUAGACUGCCCCUCUGGAUUCCUCGUCUCUCUGCAGGGCAUCUCUGAGAGAAAUGCC [U100C A117U A121U], 1.95. Consider UACGUAGGUGGUUUUCCCCUGAUAGUGCUAAGGGGGCCUGGAAGUUUGGACUGGGCAGAGCUCAACACAGCGUGGCAAAGUGGCUGUGGCUAGACAGCCUCACUGGAUUCCUCGUCACUCAGCAGGGCAUCUCUGAGUGAAGUGCC [U96A U102A A138U A142G], for which the self-cleavage was found to be 0.01. On to UACGUAGGUGGUUUUCCCCUGAUAGUGCUAAGGGGGCCUGGAAGUUUGGACUGGGCAGAGCUCAACACAGCGUGGCAAAGUGGCUGUGGCUAGACAGCCUCUCUGGAUUCCUCGACACUCGGCAGGGCAUCUCUGAGAGAAAUGCC [U96A U115A A121G], for which the self-cleavage is 0.08. For the variant UACGUAGGUGGUUUUCCCCUGAUAGUGCUAAGGGGGCCUGGAAGUUUGGACUGGGCAGAGCUCAACACAGCGUGGCAAAGUGGCUGUGGCUAGACUGACUCUCUGGAUUCCUCGUCACUCGGCAGGGCAUCUCUGAGAGAAGUGCC [C98A A121G A142G], the self-cleavage amounted to 0.07. For the variant UACGUAGGUGGUUUUCCCCUGAUAGUGCUAAGGGGGCCUGGAAGUUUGGACUGGGCAGAGCUCAACACAGCGUGGCAAAGUGGCUGUGGCUAGACCGCCUCCCUGGAUUCCUCGUCACUCAGUAGGGCAUCUCUGGGAGAAAUGCC [U96C U102C C123U A136G], the self-cleavage is 0.06. For UACGUAGGUGGUUUUCCCCUGAUAGUGCUAAGGGGGCCUGGAAGUUUGGACUGGGCAGAGCUCAACACAGCGUGGCAAAGUGGCUGUGGCUAGACAGCCUCUCUGGAUUCCUCGCCACUCAGCAGGACAUCUCUGAGAGAAAUGCC [U96A U115C G127A] the value was 0.05; for UACGUAGGUGGUUUUCCCCUGAUAGUGCUAAGGGGGCCUGGAAGUUUGGACUGGGCAGAGCUCAACACAGCGUGGCAAAGUGGCUGUGGCUAGACUGCCCCUCUGGAUUCCUCGUCUCUCAGCAGGGCACCUCUGAGAGAAAUGCC [U100C A117U U130C], 2.43. Regarding UACGUAGGUGGUUUUCCCCUGAUAGUGCUAAGGGGGCCUGGAAGUUUGGACUGGGCAGAGCUCAACACAGCGUGGCAAAGUGGCUGUGGCUAGACCGCCUCUCCGGAUUCCUCGUCACUCAGCGGGGCAUCUCUGAGAGAAAUGCC [U96C U104C A124G], the self-cleavage turned out to be 0. For UACGUAGGUGGUUUUCCCCUGAUAGUGCUAAGGGGGCCUGGAAGUUUGGACUGGGCAGAGCUCAACACAGCGUGGCAAAGUGGCUGUGGCUAGACUGCCACUCUGGAUUCCUCGUCACUCAGCAGGGCACCUCUGAGGGAAAUGCC [U100A U130C A138G] the value was 1.08. Consider UACGUAGGUGGUUUUCCCCUGAUAGUGCUAAGGGGGCCUGGAAGUUUGGACUGGGCAGAGCUCAACACAGCGUGGCAAAGUGGCUGUGGCUAGACAGCCUCUCUGGAUUCCUCGUCACUCAGCAGGGCAUCUUUGAGAGAGAUGCC [U96A C133U A141G], for which the self-cleavage turned out to be 0.11.

On to UACGUAGGUGGUUUUCCCCUGAUAGUGCUAAGGGGGCCUGGAAGUUUGGACUGGGCAGAGCUCAACACAGCGUGGCAAAGUGGCUGUGGCUAGACUGCCCCUCUGGGUUCCUCGUCACUCAGCAUGGCAUCUCGGAGAGAAAUGCC [U100C A107G G125U U134G], for which the self-cleavage amounted to 2.34. For UACGUAGGUGGUUUUCCCCUGAUAGUGCUAAGGGGGCCUGGAAGUUUGGACUGGGCAGAGCUCAACACAGCGUGGCAAAGUGGCUGUGGCUAGACUGCCCCUCUGGAUUCCUCGUCACUCAGCAGGGCAUCUCUGAGCGAAAAGCC [U100C A138C U143A] the value was 1.74; for UACGUAGGUGGUUUUCCCCUGAUAGUGCUAAGGGGGCCUGGAAGUUUGGACUGGGCAGAGCUCAACACAGCGUGGCAAAGUGGCUGUGGCUAGACCGCCUCUCUGGAUUCCUCGUCACUCAGCAGGGCAUCUCUGAGAGUACUGCC [U96C A140U A142C], 0.04; for UACGUAGGUGGUUUUCCCCUGAUAGUGCUAAGGGGGCCUGGAAGUUUGGACUGGGCAGAGCUCAACACAGCGUGGCAAAGUGGCUGUGGCUAGACCGCCUCCCUGGAUUCCUCGUCACUCAGCUGGGCAUCUCUGAGAGAAAUGCC [U96C U102C A124U], 0.11. On to UACGUAGGUGGUUUUCCCCUGAUAGUGCUAAGGGGGCCUGGAAGUUUGGACUGGGCAGAGCUCAACACAGCGUGGCAAAGUGGCUGUGGCUAGACCGCCUCUCUGGCUUCCUCGUCACUCAGCAGGGCAUCUCUGAGAGGAAUGCC [U96C A107C A140G], for which the self-cleavage worked out at 0.
